Whole data set: some 4,500 sequences, median “median log2 fold change of GCK-ALFA target abundance (FLAG IP / Myc IP barcode read proportion)” near 0.078, cut for the lowest 2% near -0.6. The list shows a part of the results.
B1: GBRAP_166_4959 (protein)
chain: SLEEVRARLEAALAAFEAEGASLSLEERRDRLVEIAELLGEAARAGLPREELLEAAVRLLLLARAAGLSPAFVEAALVNIAGLPVELVDEALARAEALAA
B2: GBRAP_125_3034 (protein)
chain: AAAALAAALATIAAALGLSADDVEELVALARAHGVKGAMIALALAEGNEELADLLAKLSEAEVAAVAAELAAWLAAHPDATPEEVLERWLELAREAVARS
B3: GBRAP_9_7130 (protein)
chain: REELVEKLAEVVKEMIEDIKKAVPELTEEQAEKFKKKVEELKKELLADKTATPEEIAKKFLELVKEIEEEVKKIVNEEEKKIVEAIALTAEEEIEEIVEE
B4: GBRAP_39_5699 (protein)
chain: EEEEELEIEFSYYEAVGAKYMYEKNISLEEAIKEALKIFEKIEKEHPELKPLMEKLKEILENGDEESRIAAIGIAVSYEEGMPLEEFKEKAEKLIKYVEK
B5: GBRAP_78_6710 (protein)
chain: DLEEAIDAAIDALGEAARLSLSLPEDIRTELLDHLIDAQELLWEIEEGEATEEDIKELKEEVKKAKEIAEKNKDKLSPELIKAVKEAAEKTEKAIELLKK
B6: GBRAP_83_6939 (protein)
chain: AEKVVVAAPGDKVEEAVEIALDLKEEEGYEVSLEIIFSKEEAEKVIEKIGELIEKGFEGEITLISTDNDEELAEEVKEKIKELAKKYGKNVKVEAYVIEP
B7: GBRAP_160_4361 (protein)
chain: SEELKKLAEEIRELREEFEEEAKNLSPEEVRILAIGELSEVAALIFHNEAVSEETEEKIMEIIDEAIEKIKENENASPEEIVEITNEAFEEIIKLVEEEA
B8: GBRAP_184_5276 (protein)
chain: MIKHVEIEAETGEEAIEKVKKAAEEAKAAGEKLKLTLVLENASLEEIKELFALLKELKEEGIIEEAVVEIERELSDEEIDEVLKAADEAGVRVVLAISDE
B9: GBRAP_128_3392 (protein)
chain: SEEEKVEKAKELIDKIIEADVEEAKKLAKEFMELFGTLSNEDREEVAEYFEEQLPKLTAEKLEVVADVLEEQRPKFDPYGQELVAGMEVEALNEAEEKEE
B10: GBRAP_128_3490 (protein)
chain: SMAAAVARTRELMAAIGEADAAEAAALTAEIVALLASADPETREAIVEVIESMLPELSAEKLDVVADTLEAQRPTLDPDTANLVADIQVAALNEALEKEE
B11: GBRAP_11_2782 (protein)
chain: KKEKLEEIVKLAKEAIKLAEKLLKEGVDNEELIKKLEKALKELRKLAEENLDEGEKKLVEIAEELWKEFLEDEENKEEYLKQLIAALRVLEGQALLLLEE
B12: GBRAP_160_4043 (protein)
chain: KEKYEKLKEEAKKEFKEAEELIEGQTAEEAAVIVSVTVGEIILTAEELGVDDDELEDFIDEKGDEAVEELLANPDLTEEEIKELLKEMEKKVLEAIEKAK
B13: GBRAP_35_5606 (protein)
chain: DSLETTVEMLVATIEDLTLAVPEMPVEQLAKIGRSLIKLAREIAEEAKDNLEALKKLKEAVKKLLEAIKKHKGDNPLAQKLAKEVEELLKYLEELIKKVE
B14: GBRAP_52_6122 (protein)
chain: MREEAEKLVREVLALIRAGKREEARALIKKFVEAANDEELRILAEAVAELAREAPPEDWDAVWELAEMLAEEMEKAGKDEVLVDDLLARTAAALYERELA
B15: GBRAP_52_6232 (protein)
chain: ARAAARAAVERIIAAVRAGKEAEARAIAREIAATWDDAELELLAEALAEATRAAPKEDLPAYERAAEILAEELEAAGRPDVLVDYLEARFAAAAYENEQK
B16: GBRAP_128_3271 (protein)
chain: MNPEVVEYAKKLMEEMKNSNEEERRKIAEEIMERILASSLEEAEAMIEVIEELLKELSAEDLEILAEVAREARPKADPEKANLLAGLEVEALNEAEEKEE
B17: GBRAP_64_6481 (protein)
chain: SEEIEEEHERLLKKVKELLELFKKELPELAPRAQAILEKVEEAKEKSLEEKLDLVVEVADELLALYNDPRVSEELKDKIAEALDAAFALAALLAEKEEEE
B18: GBRAP_166_4874 (protein)
chain: GLEELLEKARKEIRELLKKASEADDEERVELYIEIGEIIEELREAGAPKEAILELVREALKEAKELGLDVRLLAGIIINVTDFDEEEIDELDKIVEEVLK
B19: GBRAP_128_3206 (protein)
chain: VSPETVAELRALADEVAATKTDAAIKAFAAAIAEALKAGRLNLDALEEVVTYLGKKLDEETIAKAMDALRAALADVGPEALATALGALGEVLMEKEEEEE
B20: GBRAP_184_5295 (protein)
chain: KVVRKVIEAKTAEEAIKKINEVAEKAKEEGVKVELDLFLENVSVEGFKKIAEKLKELKEKGLIKEATVVLLDEKSEEEVDEFVKIADEAGIRLVVALSDE
B21: GBRAP_166_4896 (protein)
chain: STADAIAAIEALADDVIARIAELTDEELLDAFVEMAEIVDKAGATPELIAAAAAAFVRVAQAAVAAGRDWARVETLILGAVGYDEKLLDAVEAALAAARA
B22: GBRAP_160_4064 (protein)
chain: MSKTEKAIEAIRKEAEEILKLIEGESVEQRATIIDVEFGSTILELYEEGLISEETAEKLLEVVDETVAYLLANPDLSEEEIKELIKEAVEKMEKIIKEDS
B23: GBRAP_128_3270 (protein)
chain: ANPEVVAWARAAVEALKTSTPEEARAIAEAFAQWLLESSLEDAEQAVEVVEERLPELTVEQLDILADALRAARPQADPGKANLLAGLEVAALNEAEELEE
B24: GBRAP_160_4268 (protein)
chain: SKSLEELAEDVEEDREEILALVDELSAEEIRTLAVTSLGSHLLEAIDEGKISDEAEEELAAIIDKLDADLTAAADASPEERRAIITEHYDKAIELLRKEA
B25: GBRAP_78_6646 (protein)
chain: EVEELIDKAIEELDEAAKLAKNLPEEERNELLYYLVEASSYLLLAEENGFDLKELEEAKKHLEKALKLVKKLKSKYAPEIEKELEKALKLLEEAIKLVKE
B26: GBRAP_128_3568 (protein)
chain: SVEEKVARAEALLERIRAGDEAERRAAAEEIVALLAAADEESRAAITETILARLPELSVEELDVLADVFRRAMPSADPATAEALAEIEVEALNEAEEKEE
B27: GBRAP_9_7165 (protein)
chain: SKEKKEKILEVVKEALEEIIELVPEEVKPLAKKLAEEALKKLEEAVKDENTTVEEFAEKAKEELKKVAEELKKKVDEETAKMIEAVVLTAEEEIEEIVEE
B28: GBRAP_160_4798 (protein)
chain: SERVERVARLFREAAREAIEMAKGETHEERVNIFDVELGSAIMEAIEEGLLNDEEEDVALEVRDELIAALRANPDLTEEEIRALAEAAVEDLRRRLEELA
B29: GBRAP_11_2758 (protein)
chain: KKEKLKEIAELAEKIAELLEKLLEEGVDNEELLKEAEKAIKELEKLVKEYGDESLKKLVEILKEEWEESLEDEENKEQYVKEALATARVIAGDALLEYEE

Biological target: GABARAP, O95166
Sequence (O95166 whole entry, the tested form may be a part): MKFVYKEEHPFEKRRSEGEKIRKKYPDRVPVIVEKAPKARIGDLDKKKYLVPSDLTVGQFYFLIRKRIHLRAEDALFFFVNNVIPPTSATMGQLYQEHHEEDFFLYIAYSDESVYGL
Experiment: median log2 fold change of GCK-ALFA target abundance (FLAG IP / Myc IP barcode read proportion) (log2 ratio); each designed protein is fused to an ALFA-tag nanobody in HEK293 cells to bring the named protein to FLAG-tagged glucokinase (GCK); Myc marks an untargeted standard; higher = target protein stabilised (more abundant)
Settings: target protein: 3xFLAG-MCP-GCK-ALFA reporter; HEK293 landing pad (RPLP)
Summary of the method: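 HEK293 landing-pad cells received a recombined binder library fused to the ALFA nanobody and were induced with 2 μg mL^−1 doxycycline, then transfected with a plasmid encoding a FLAG-tagged target and a Myc-tagged standard. Lysates were collected after 48 h for anti-FLAG and anti-Myc immunoprecipitation, and the circular RNA barcodes were reverse transcribed, amplified and sequenced. Target abundance for each binder is the median log2 ratio of FLAG to Myc barcode read proportions. Barcodes had to reach a proportion of at least 10^−7 in both replicates, each binder needed at least 3 barcodes per replicate, a pseudocount of 10^−6 was applied, and the two replicates were pooled.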

Question: With B1 as the binder, how does the “median log2 fold change” value read?
Answer: 0.117

Question: How did the “median log2 fold change” value turn out when B2 was run?
Answer: -0.0489

Question: With B3 as the binder, how does the “median log2 fold change” value read?
Answer: 0.208

Question: For B4, which “median log2 fold change” value is on record?
Answer: 0.297

Question: For B5, which “median log2 fold change” value is on record?
Answer: -0.0699

Question: With B6 as the binder, how does the “median log2 fold change” value read?
Answer: -0.184

Question: How did the “median log2 fold change” value turn out when B7 was run?
Answer: -0.212

Question: Which “median log2 fold change” value does the source give for B8 here?
Answer: 0.223

Question: Which “median log2 fold change” value does the source give for B9 here?
Answer: -0.136

Question: With B10 as the binder, how does the “median log2 fold change” value read?
Answer: 0.168

Question: With B11 as the binder, how does the “median log2 fold change” value read?
Answer: 0.3

Question: For B12, which “median log2 fold change” value is on record?
Answer: -0.193

Question: How did the “median log2 fold change” value turn out when B13 was run?
Answer: -0.544

Question: B14 was tested. Which “median log2 fold change” value did it give?
Answer: 0.0507

Question: How did the “median log2 fold change” value turn out when B15 was run?
Answer: 0.0142

Question: With B16 as the binder, how does the “median log2 fold change” value read?
Answer: 0.243

Question: How did the “median log2 fold change” value turn out when B17 was run?
Answer: -0.106

Question: For B18, which “median log2 fold change” value is on record?
Answer: 0.0131

Question: For B19, which “median log2 fold change” value is on record?
Answer: 0.228

Question: With B20 as the binder, how does the “median log2 fold change” value read?
Answer: -0.0918

Question: B21 was tested. Which “median log2 fold change” value did it give?
Answer: 0.185

Question: For B22, which “median log2 fold change” value is on record?
Answer: -0.337

Question: B23 was tested. Which “median log2 fold change” value did it give?
Answer: 0.0153

Question: B24 was tested. Which “median log2 fold change” value did it give?
Answer: 0.0659

Question: How did the “median log2 fold change” value turn out when B25 was run?
Answer: -0.0456

Question: For B26, which “median log2 fold change” value is on record?
Answer: 0.215

Question: Which “median log2 fold change” value does the source give for B27 here?
Answer: 0.369

Question: B28 was tested. Which “median log2 fold change” value did it give?
Answer: 0.104

Question: For B29, which “median log2 fold change” value is on record?
Answer: 0.149

Source: the supplement of paper PMC12632987
